The record followed here is patent US12678512B2, “Anti-EGFR antibody-drug conjugate with a cyclic dinucleotide derivative” (DAIICHI SANKYO COMPANY, LIMITED, priority 2020, dated 2026).

This test has as its system CT26.WT-hEGFR cells subcutaneously transplanted in BALB/c mouse. Description: Anti-tumor test (2). The following applies: 1.5 mg/kg into the tail vein once on Day 12, FIG. 15. Format: in vivo. The text has this: CT26.WT (CRL2638), a mouse colon cancer cell line purchased from American Type Culture Collection, was transduced with the human EGFR gene (NP_005219.2) to establish CT26.WT-hEGFR cells. Specifically, a pLVSIN lentiviral vector (Takara Bio), in which the human EGFR gene was inserted, was constructed. Next, Lenti-X293T cell line (Takara Bio) was transfected with the vector using a Lentiviral High Titer Packaging Mix (Takara Bio). Then, the supernatant was collected, and the CT26.WT was infected therewith. The cells were maintained in medium supplemented with 10 μg/mL puromycin (Thermo Fisher Scientific).
CT26.WT-hEGFR cells were suspended in saline. Ne×t, 3×10^6 cells were transplanted subcutaneously into the right axillary region of each BALB/c mouse (Day 0), and random grouping was conducted after 12 days. […] In addition, the vehicle group was provided in which acetate buffer was administered. The number of mice in each group was 8.

B1: anti-EGFR antibody 2: IgG1 isotype with LALA mutation, produced with reference to WO2002/092771; light chain SEQ ID NO: 11, heavy chain SEQ ID NO: 12 (antibody, listed as Homo sapiens)
heavy: DVQLQESGPSLVKPSQSLSLTCTVTGYSITSDFAWNWIRQFPGNKLEWMGYISYSGNTRYNPSLKSRISITRDTSKNQFFLQLNSVTIEDTATYYCVTAGRGFPYWGQGTLVTVSAASTKGPSVFPLAPSSKSTSGGTAALGCLVKDYFPEPVTVSWNSGALTSGVHTFPAVLQSSGLYSLSSVVTVPSSSLGTQTYICNVNHKPSNTKVDKRV[omitted - human IgG1 Fc with changes]
light: DILMTQSPSSMSVSLGDTVSITCHSSQDINSNIGWLQQRPGKSFKGLIYHGTNLDDEVPSRFSGSGSGADYSLTISSLESEDFADYYCVQYAQFPWTFGGGTKLEIKRTVAAPSVFIFPPSDEQLKSGTASVVCLLNNFYPREAKVQWKVDNALQSGNSQESVTEQDSKDSTYSLSSTLTLSKADYEKHKVYACEVTHQGLSSPVTKSFNRGEC
In the case of B1, the “tumor growth (tumor volume)” value is reported as “tumor growth was not inhibited”.
